Here are results for 110 compounds from PubChem BioAssay AID488969 (Vanderbilt High Throughput Screening Facility, 2010).

Structures are written as SMILES. Whole data set: some 110,000 compounds, median “z-score” near -0.1, cut for the highest 2% near 2. Some of the results follow. Active and inactive are the calls of the source.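 How the source made its calls: active means z-score in the third read window above 3 or below -3; inactive means the rest.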

The test addresses Metabotropic glutamate receptor 8 (Rattus norvegicus) (UniProt P70579). Put plainly: rat mGluR8 modulators via GIRK flux, primary screen, cell-based, thallium flux, HTS (AID 488969). Particulars: HEK293 rat mGluR8, GIRK (G protein-gated inwardly rectifying potassium channel) thallium flux, FluoZin2; at 10 µM; stronger effect = higher value; submaximal glutamate (EC20) added with thallium.
UniProt P70579, sequence (P70579 whole entry, looked up): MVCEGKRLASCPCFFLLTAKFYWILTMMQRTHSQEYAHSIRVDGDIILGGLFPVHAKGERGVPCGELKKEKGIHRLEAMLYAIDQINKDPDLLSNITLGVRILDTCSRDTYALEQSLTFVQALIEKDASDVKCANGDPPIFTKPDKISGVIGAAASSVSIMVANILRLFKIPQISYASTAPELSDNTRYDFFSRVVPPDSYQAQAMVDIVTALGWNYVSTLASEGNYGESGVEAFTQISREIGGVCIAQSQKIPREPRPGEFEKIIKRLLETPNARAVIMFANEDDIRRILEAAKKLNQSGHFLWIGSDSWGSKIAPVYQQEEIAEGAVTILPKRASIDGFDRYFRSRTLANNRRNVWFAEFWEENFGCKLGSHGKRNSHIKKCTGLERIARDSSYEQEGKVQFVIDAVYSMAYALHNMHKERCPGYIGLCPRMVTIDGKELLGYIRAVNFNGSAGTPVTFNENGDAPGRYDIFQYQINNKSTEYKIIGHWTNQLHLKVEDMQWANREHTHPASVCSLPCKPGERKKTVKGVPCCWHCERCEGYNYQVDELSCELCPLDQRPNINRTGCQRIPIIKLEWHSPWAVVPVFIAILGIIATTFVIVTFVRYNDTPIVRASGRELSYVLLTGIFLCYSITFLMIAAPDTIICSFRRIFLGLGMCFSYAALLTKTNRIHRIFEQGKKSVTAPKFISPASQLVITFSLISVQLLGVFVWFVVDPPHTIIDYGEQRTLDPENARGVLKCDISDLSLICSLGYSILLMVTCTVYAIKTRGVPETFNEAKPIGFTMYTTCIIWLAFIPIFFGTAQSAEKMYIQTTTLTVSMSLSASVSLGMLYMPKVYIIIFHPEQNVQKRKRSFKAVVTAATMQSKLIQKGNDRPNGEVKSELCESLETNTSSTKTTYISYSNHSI
For the compound `O=C(COC(=O)CCc1c[nH]c2ccccc12)NC(c1ccccc1)c1ccccc1`, the z-score was -0.181.

As for `COc1ccccc1-n1c(C)cc(C=O)c1C`, the z-score was found to be 0.251.

Regarding `CCOC(=O)Cc1csc(NC(=O)CSc2nnnn2-c2ccc(C)c(C)c2)n1`, the z-score was found to be 0.0467.

In the case of `CCOC(=O)N1CCC(=NNC(=O)COc2ccc(C#N)cc2)CC1`, the z-score was -0.197.

As to `COC(=O)CCC(=O)NC(=S)Nc1sc(C)c(C)c1C(N)=O`, the z-score was -0.201.

As to `O=C(COC(=O)c1cncc(Br)c1)NCc1ccco1`, the z-score worked out at 0.135.

`Cc1cccc(NC(=O)Cn2c(=O)n(C)c3ccccc32)c1`: the z-score came out at 0.24.

The compound `Clc1ccc(-c2ccc(C=Nc3ccc(N4CCOCC4)cc3)o2)cc1` returned a z-score of -0.0828.

`Cc1ccc(-n2c(SCC(=O)NCc3ccco3)nc3c(sc4ccccc43)c2=O)cc1` showed a z-score of -0.175.

As to `COc1ccccc1NC(=S)N1CCc2cc(OC)c(OC)cc2C1`, the z-score is -0.933.

Compound `COc1ccc(-c2nnc(NC(=O)C3=COCCO3)o2)cc1` yielded a z-score of 0.731.

In turn, `Fc1ccc(CSc2ncnc3sc4c(c23)CCCC4)cc1` had a z-score of -0.0403.

As for `CC1(C)C2CCC1(C)C(OCC[N+](C)(C)CC(=O)OC1CCCCC1)C2` (stereo not given), the z-score stood at 0.441.

With `CCN(CC)CCNC(=O)CCc1nn(C)c(=O)c2ccccc12`, the z-score turned out to be 0.0546.

`CN(C)c1cccc(C(=O)OC(C(=O)Nc2ccc(Cl)cc2C(F)(F)F)c2ccccc2)c1` (stereo not given) showed a z-score of -0.13.

In turn, `CCc1ccc(NC(=O)CSc2nnc(-c3cccs3)n2CC)cc1` yielded a z-score of -0.444.

`COc1ccccc1C(=O)N/C(=C/c1ccc(Br)cc1)C(=O)NCC(=O)O` came in with a z-score of -0.161.

Regarding `COc1cccc(C2CC(C(F)(F)F)n3ncc(C(=O)NCc4ccco4)c3N2)c1` (stereo not given), the z-score is -0.434.

The compound `O=c1nc2n(c3cc(Cl)c(S(=O)(=O)N4CCOCC4)cc13)CCCCC2` returned a z-score of -0.49.

Turning to `C#CCSc1nncn1C(=O)/C=C/c1ccccc1`, the z-score was -0.494.

Compound `COc1ccc(CNS(=O)(=O)c2cc(OCC(N)=O)c(C)cc2Cl)cc1` showed a z-score of -0.146.

In the case of `O=C(COc1ccc(/C=N/NC(=O)C(=O)N2CCCCCC2)cc1)Nc1ccccc1Cl`, the z-score was -0.237.

`Cn1c(CO)cnc1SCc1ccccc1`: the z-score is -0.114.

In the case of `COc1cc(OC)cc(C(=O)Nc2nc(-c3ccccc3)c(-c3ccccc3)o2)c1`, the z-score was active: 3.64.

Compound `O=C(CCCCl)NC(=S)Nc1cc(C(F)(F)F)ccc1N1CCOCC1` displayed a z-score of 0.012.

`CSc1nc2nccc(/C=C\c3ccccc3)n2n1` gave a z-score of -0.423.

As for `S=C(NC12CC3CC(CC(C3)C1)C2)N1CCCC1`, the z-score was -0.0857.

Take `O=C1c2ccccc2CCC1C(O)c1ccccn1` (stereo not given): the z-score came to 0.411.

On to `Cc1c(NC(=O)CSc2nnnn2Cc2ccccc2)c(=O)n(-c2ccccc2)n1C`, for which the z-score came out at 0.0435.

Take `C=CCSC1=N/C(=C\c2sccc2C)C(=O)S1`: the z-score came out at 0.0432.

For the compound `Cc1ccc(Cn2cccc(-c3nc4ccccc4s3)c2=O)cc1`, the z-score was found to be 0.0523.

`N#C/C(C(=O)N1CCCCC1)=C1\Nc2ccccc2S1` displayed a z-score of 0.512.

With `Clc1ccccc1-c1nnc2sc(-c3ccc4c(c3)OCO4)nn12`, the z-score was active: -4.26.

Consider `Cc1ccccc1N1CC(=O)N(c2ccccc2C)CC1=O`, for which the z-score is -0.0643.

Take `CN(CC(=O)N1CCCC1)S(=O)(=O)c1ccc(Cl)cc1`: the z-score is -0.073.

Regarding `OCCNc1nc(Nc2ccccc2)nc2ccccc12`, the z-score was -0.158.

`CCc1nc(NCCCn2ccnc2)c2oc3ccccc3c2n1` had a z-score of -0.732.

In the case of `Cc1cccc(N2CCN(C(=O)CCn3c(=S)[nH]c4cc5c(cc4c3=O)OCO5)CC2C)c1` (stereo not given), the z-score amounted to 0.0286.

Compound `Cc1cc(OCC(=O)N(C(C)C)C(C)C)cc(C)c1Br` had a z-score of -0.265.

In turn, `Cc1nnc(SCC(=O)NC(=O)NCc2ccco2)n1Cc1ccccc1` gave a z-score of 0.0176.

Regarding `C=CCn1cccc(/C=C/C(=O)c2ccc(C(C)(C)C)cc2)c1=S`, the z-score was found to be 0.0383.

`COc1cc(/C=C(\C#N)C(=O)Nc2ccc3ccccc3c2)c([N+](=O)[O-])cc1OC` yielded a z-score of 0.349.

`O=C(COc1ccc(F)cc1)Nc1ccc(-n2cnnn2)cc1` yielded a z-score of -0.0711.

`Cc1nnc2c3ccccc3c(-c3cccc4ccccc34)nn12` yielded a z-score of -1.04.

As to `CN(C)/C=C(\C#N)C(=O)c1cccc(Oc2ccc(Br)cc2)c1`, the z-score was -0.258.

Regarding `CS(=O)(=O)N1CCc2cc(C(=O)N3CCCCC3)ccc21`, the z-score was 0.267.

The compound `C=CCn1c(COc2ccc(CC)cc2)nnc1SCC(=O)NC1CCS(=O)(=O)C1` (stereo not given) returned a z-score of -0.512.

Take `O=C1CCSc2ccc(Cl)cc2N1Cc1cccc(Cl)c1`: the z-score is -0.497.

With `COc1nccnc1NS(=O)(=O)c1ccc(NC(=S)NC(=O)/C=C/c2ccccc2)cc1`, the z-score is -0.279.

Take `COc1ccc(CN(C(=O)c2cnccn2)C(C(=O)NC(C)(C)C)c2cc(OC)c(OC)c(OC)c2)cc1` (stereo not given): the z-score is -0.221.

In the case of `COc1ccc(-c2cc(C(=O)NN)[nH]n2)cc1`, the z-score was -0.174.

With `C/C(CC(=O)Nc1cccc2c1CCCC2)=N\NC(=O)c1ccccc1N`, the z-score is 2.22.

Regarding `O=C1C(C2=NC(C(=O)O)C3C(=O)N(c4ccccc4)C(=O)C23)=C(O)c2ccccc21` (stereo not given), the z-score came to 0.46.

As to `N=c1n(CC(=O)c2ccc([N+](=O)[O-])cc2)c2ccccc2n1Cc1ccccc1Cl`, the z-score was found to be 0.471.

The compound `CC(CC(=O)c1cccs1)CC(=O)c1cccs1` displayed a z-score of -0.476.

For the compound `CCC(=O)c1ccc(OCC(O)CN2CCCCC2)cc1` (stereo not given), the z-score is -0.105.

On to `O=C(NC1CC2CCCC(C1)N2C(=O)Nc1ccccc1)c1ccncc1` (stereo not given), for which the z-score was -0.146.

Regarding `CN(c1ccccc1C(=O)N1CCN(c2ccccc2)CC1)S(C)(=O)=O`, the z-score turned out to be 0.478.

Take `CCn1c(SCC(=O)NNC(=S)Nc2ccc(C)cc2)nnc1-c1ccc(Cl)cc1`: the z-score is -0.351.

As for `Cc1ccc(-c2nc(S(=O)(=O)c3ccc(F)cc3)c(SCC(=O)NCC3CCCO3)o2)cc1` (stereo not given), the z-score was -0.32.

The compound `CN(C)CC(O)COc1cccc(OCC(O)CN(C)C)c1` (stereo not given) registered a z-score of -0.132.

Regarding `Fc1ccc(CSc2nnc(-c3cccs3)o2)cc1`, the z-score was 0.789.

Turning to `C/C(=N\NC(=O)c1c(Cl)c(C)nn1C)c1ccc(NC(=O)c2ccncc2)cc1`, the z-score was determined as 0.016.

On to `CC(C)n1c(O)c(N=NC(=O)c2ccccc2NS(=O)(=O)c2cccs2)c2ccccc21`, for which the z-score was -0.411.

For `C=CCC(C)(NCc1ccccc1)c1ccc(C)cc1` (stereo not given), the z-score amounted to 0.0269.

`CN(C)C(=O)COc1ccc2ccc(=O)oc2c1` gave a z-score of -0.168.

`Cc1ccc(NC(=S)Nc2ccc(Cl)c(Cl)c2)c(OC(F)F)c1`: the z-score was active: 5.16.

On to `Cc1cc(C(=O)N/N=C/c2cccc([N+](=O)[O-])c2)c(C)n1-c1ccccc1`, for which the z-score was -0.213.

In turn, `COc1ccc2c(c1)c(=O)oc1cc(OCC(=O)N3CCCC(C)C3)ccc12` (stereo not given) displayed a z-score of -0.0927.

As for `CC(=O)N1N=C(c2cccc([N+](=O)[O-])c2)OC1c1ccccc1Cl` (stereo not given), the z-score was -0.453.

As to `Cc1cc(NC(=O)CSc2nc3ccccc3[nH]2)no1`, the z-score is 0.304.

Regarding `CCN(CC)C(=O)C(=O)N/N=C/c1cccs1`, the z-score was -0.0972.

`Cc1c(C(=O)NCc2cccnc2)oc2ccc(S(=O)(=O)N3CCCCC3)cc12` displayed a z-score of 1.3.

With `COc1cc(NC(=O)/C=C/c2ccccc2[N+](=O)[O-])cc(OC)c1`, the z-score came to 1.28.

In turn, `O=C(CSc1cn(CCNC(=O)c2ccccc2)c2ccccc12)NCc1ccco1` came in with a z-score of -0.331.

Compound `CCCCOC(=O)c1cc(=O)[nH]c2ccccc12` registered a z-score of -0.426.

The compound `O=C(CSc1nnc(CCCO)n1-c1ccccc1)NCCc1ccccc1` showed a z-score of -0.0197.

`O=C(Nc1ccccc1)NC1CS(=O)(=O)CC1O` (stereo not given) had a z-score of 0.265.

`Cc1ccccc1N1CCN(c2ncnc3scc(-c4cccs4)c23)CC1`: the z-score came to 0.199.

Regarding `CCOC(=S)SCC(=O)N1CCc2cc(OC)c(OC)cc2C1C1C(=O)CC(C)(C)CC1=O` (stereo not given), the z-score was -0.189.

Turning to `C=CCNc1nc(N)c(C(=C(C#N)C#N)c2ccccc2)s1`, the z-score worked out at 0.741.

As for `COc1ccc(NC(=S)Nc2cc(S(=O)(=O)N3CCCCC3)ccc2OC)cc1`, the z-score came out at 0.0265.

In turn, `CC12CCC(C(=O)NCc3ccccc3)(OC1=O)C2(C)C` (stereo not given) registered a z-score of -0.541.

Turning to `CSCC[C@@H](Nc1nc(-c2ccccc2)nc2c1oc1ccccc12)C(=O)O`, the z-score is -2.48.

Take `COCC(=O)OCC(=O)Nc1cc(C(C)(C)C)nn1-c1ccccc1`: the z-score is -0.0932.

For `Cc1ccc(C(=O)N/C(=C\c2cccc([N+](=O)[O-])c2)C(=O)OCN2C(=O)c3ccccc3C2=O)cc1`, the z-score is -0.447.

On to `CC(=O)c1[nH]c(C)c(C(C)=O)c1C`, for which the z-score is -0.449.

The compound `CCOC(=O)C1=C(C)NC(SCC(N)=O)=C(C#N)C1c1ccncc1` (stereo not given) had a z-score of -0.0596.

Take `Cc1ccccc1-c1cc(-c2ccccc2O)on1`: the z-score was -0.494.

Regarding `Cc1ccc(-c2n[nH]c(=S)n2/N=C/c2cccn2C)cc1`, the z-score was found to be 1.02.

`COc1ccc(S(=O)(=O)NN=C2CCCC2)cc1` registered a z-score of -0.0847.

Take `CCC(=O)Nc1cccc(NC(=S)NC(=O)c2ccc(Cl)cc2)c1`: the z-score was determined as 0.0573.

`Cc1ccc2[nH]c(=O)c3cc(C(=O)N4CCN(C(=O)c5ccco5)CC4)sc3c2c1` gave a z-score of -0.867.

On to `COc1ccc(NC(=O)CSCC(=O)N2c3ccccc3CCc3ccccc32)cc1`, for which the z-score is -0.15.

In turn, `CCOC(=O)C1=C(C(F)(F)F)Nc2ncnn2C1c1ccc(OC)c(OC)c1OC` (stereo not given) showed a z-score of 0.0602.

The compound `O=c1c(-c2ccc(Cl)cc2)[n+]([O-])c2ccccc2n1OCc1ccccn1` displayed a z-score of -0.125.

On to `O=C(CN1CCCCC1)Nc1ccccc1-c1ccccc1`, for which the z-score was -1.09.

Compound `COc1ccc(NS(=O)(=O)c2ccc3nc(COc4cccc5ccccc45)[nH]c3c2)cc1` had a z-score of -0.0403.

`COc1ccc(N=Cc2c[nH][nH]c2=O)cc1` had a z-score of -0.194.

In turn, `CNC(=S)N/N=C/c1cc(Br)cc(Br)c1O` displayed a z-score of 1.79.

Take `CN=C1SC(CC(=O)Nc2ccc(C(C)=O)cc2)C(=O)N1C` (stereo not given): the z-score was -0.153.

As to `COc1ccc(NC2CCN(C3CC(=O)N(c4ccc(F)c(Cl)c4)C3=O)CC2)cc1` (stereo not given), the z-score came out at 0.635.

`Cc1nc(-c2cccc(S(=O)(=O)N3CC(C)CC(C)C3)c2)cs1` (stereo not given) returned a z-score of -0.269.

Compound `O=C(COC(=O)c1sc2cc(F)ccc2c1Cl)Nc1ncc(Cl)cc1Cl` showed a z-score of -0.0268.

`CCOc1ccc(NC(=O)Nc2cc(C)ccc2OC)cc1` returned a z-score of 1.89.

`CCOC(=O)C1CCN(C(=O)Cc2cccs2)CC1` returned a z-score of -0.606.

The compound `CCOc1ccccc1/C=C(/NC(=O)c1ccccc1)C(=O)N(CC)CC` came in with a z-score of -0.729.

For the compound `O=c1[nH]c(N2CCCCC2)nc2c1CCCC2`, the z-score was -0.0686.

As for `CCCCC(=O)NC1(C(F)(F)F)C(=O)N(CC(C)C)C2=C1C(=O)CC(C)(C)C2` (stereo not given), the z-score was -0.21.

`Cc1c(Cl)cccc1NC(=S)N(CCCN1CCOCC1)Cc1cccs1` registered a z-score of -0.314.
